Results: PubChem BioAssay AID1347120 (National Center for Advancing Translational Sciences (NCATS), 2019)
About 930 (0.24%) of roughly 390,000 compounds were called active. Inconclusive means that the source gave no clear call. Such entries were picked first, then a sample of the others. Calls come from the whole dose curve; as a rule, active = well fitted activation curve with a large enough effect; inconclusive = small, poorly fitted or top-dose-only effect; inactive = no such curve, though single readings can be large or run the other way. Potencies beside an inconclusive call are fits to weak or partial responses and may not hold up.

Test: qHTS for Suppressors of FUS Proteinopathy: Primary screen using FUS-linked yeast assay; note: nearly all actives have a fitted effect of over 55% in size;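 for growth rescue (activation): plate controls were DMSO vehicle for no effect and reference control for full effect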
Conditions: S. cerevisiae FUS-expressing, OD600, 24 h; Potency: growth rescue; growth rescue (activation): at 76.6 µM (top of the series)
Outline: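 Read-out: OD at 600 nm after 24hr at 30C, reporting rescue of FUS-induced yeast toxicity. Cells at OD 0.005 in galactose (2%) minimal medium; compounds tested in a dilution series; CP55940 titration from 92uM final as control.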
Potency is the fitted concentration of half-maximal effect; tags give direction and shape of the fitted curve.

Row | SMILES | Potency | growth rescue (activation)
1 | CC(=O)N1c2ccc(S(=O)(=O)N3CCC(C(=O)Nc4ccccn4)CC3)cc2CC1C (stereo not given) | inconclusive: 31.6 µM [activator, single point] | 
2 | Nc1nc(Nc2ccccc2Cl)cc(=O)[nH]1 |  | inactive: 33.5%
3 | COc1ccccc1-c1cccc([C@@H]2C[C@H]3[C@H](CON3C)CN2C(=O)CCc2ccccc2)c1 |  | inactive: 40.4%
4 | CCOC(=O)c1c(C)oc2nc(C)nc(NCc3cccc(Cl)c3)c12 |  | inactive: -19.9%
5 | Cn1ccnc1C(=O)O[C@@H]1CCC[C@@]2(C(=O)N(Cc3ccccc3)c3ccccc32)[C@H]1NC(=O)CCc1ccccc1 | inconclusive: 39.8 µM [activator, partial curve, poor fit] | 
6 | CCOC(=O)c1ccc(NC(=O)c2cn(-c3ccccc3)nc2-c2ccc(OC)c(OC)c2)cc1 | active: 25.1 µM | 
7 | CC(C)C[C@H]1CNC(=S)N1C[C@H]1CCCN1C[C@H](Cc1ccccc1)N1C[C@H](Cc2ccc(O)cc2)N(CCc2ccccc2)C1=S | inconclusive: 35.5 µM [activator, single point] | 
8 | CCCCc1ccc(/C=C(\C#N)C(N)=S)s1 |  | inactive: 9.12%
9 | CC(=O)c1ccc(OC(=O)CN2C(=O)c3ccccc3C2=O)cc1 |  | inactive: -27.5%
10 | CCC(=O)N=c1ccn(C2=Nc3ccccc3NC2=C(C#N)C#N)cc1 |  | inactive: 6.26%
11 | COc1cccc(OC)c1NC(=O)OC1CCC12CCC(c1ccccc1)CC2 (stereo not given) |  | inactive: 12.3%
12 | COc1ccc(-n2nc3ccc(N)cc3n2)cc1 | inconclusive: 22.4 µM [activator, partial curve, poor fit] | 
13 | Cc1cc(C2=NNC(=NCc3ccccc3)SC2)c(C)n1-c1c(C)n(C)n(-c2ccccc2)c1=O | inconclusive: 28.2 µM [activator, partial curve] | 
14 | CNC(=O)c1c(NC(=O)Cc2coc3ccc(C)cc23)sc2c1CCCC2 | inconclusive: 25.1 µM [activator, single point] | 
15 | COc1ccc2c(c1)CCCN2C(=O)C1CCCN(S(=O)(=O)c2ccc(Cl)s2)C1 (stereo not given) | inconclusive: 17.8 µM [activator, partial curve, poor fit] | 
16 | COc1cc(NC(=O)N2CCC3(CC2)Nc2ccccc2-n2cccc23)cc(OC)c1OC | inconclusive: 44.7 µM [activator, single point] | 
17 | CC(C)C[C@@H](CNCC(=O)[C@H](Cc1c[nH]c2ccccc12)NC(=O)c1[nH]cnc1C(=O)N[C@@H](C)CN)NC(=O)c1nc[nH]c1C(=O)N[C@@H](C)C(=O)O | inconclusive: 44.7 µM [activator, single point] | 
18 | COc1ccc(-c2cc(OC(=O)c3cccc(Cl)c3)c3c(C)oc(C)c3c(=O)c2)cc1 | inconclusive: 39.8 µM [activator, partial curve, poor fit] | 
19 | CCOc1ccc2nc(NC(=O)c3ccc(OC)c(S(=O)(=O)N4CCOCC4)c3)sc2c1 |  | inactive: 7.88%
20 | COc1ccc(CCNC(=O)Cn2cc(S(=O)(=O)Cc3ccccc3Cl)c3ccccc32)cc1OC | inconclusive: 35.5 µM [activator, single point] | 

Row | SMILES | Potency | growth rescue (activation)
21 | CCOc1ccccc1NC(=O)CSc1ncc(S(=O)(=O)c2ccc(C)c(C)c2)c(N)n1 | active: 31.6 µM | 
22 | COc1ccc(CNC(=O)CN(CCC(C)C)S(=O)(=O)c2ccc3c(c2)OCCO3)cc1 | inconclusive: 22.4 µM [activator, partial curve] | 
23 | NNC(=O)C1=NOC2COC3(CCN(c4ncccn4)CC3)OCC12 (stereo not given) |  | inactive: 27%
24 | CSc1ccc(C(O)c2ncc(-c3cccc(OCc4ccccc4)c3)[nH]2)cc1 (stereo not given) | inconclusive: 39.8 µM [activator, single point] | 
25 | O=C(NNC(=S)Nc1ccccc1)c1cc(-c2cccnc2)nc2ccccc12 |  | inactive: 29.7%
26 | COc1ccc(CN(C(=O)c2ccc3c(c2)OCCO3)C(C(=O)NC2CCCCC2)c2ccc3ncccc3c2)cc1 (stereo not given) | inconclusive: 35.5 µM [activator, single point] | 
27 | NC(Cc1ccc(C(F)(F)F)cc1)c1csc(Nc2cc(Oc3ccccc3)ncn2)n1 (stereo not given) | inconclusive: 31.6 µM [activator, single point] | 
28 | Cc1cc(=O)oc2cc(OCCc3ccccc3)ccc12 |  | inactive: 25.1%
29 | COc1ccc(NC(C)=O)cc1NC(=O)C1(c2cccs2)CCOCC1 |  | inactive: -13.8%
30 | CCN1C(=O)[C@H]2[C@@H](c3ccc(C)cc3)N3C(=O)N(c4cccc(Cl)c4)C(=O)[C@@]3(Cc3ccc(Cl)cc3)[C@H]2C1=O | inconclusive: 22.4 µM [activator, partial curve, poor fit] | 
31 | CCSc1nc(C)cc(C)c1S(=O)(=O)c1ccccc1C |  | inactive: 6.7%
32 | COCCNc1nc(Oc2ccc(C(N)=O)cc2)c2sccc2n1 |  | inactive: -13.5%
33 | CCc1cccc2c(C(=O)COC(=O)c3nccnc3N)c[nH]c12 | inconclusive: 6.31 µM [activator, partial curve, poor fit] | 
34 | Cc1ccc(C(=O)/C=C/Nc2cccc([N+](=O)[O-])c2)o1 |  | inactive: -21.7%
35 | COc1cc(NC(=O)c2cc(-c3ccc(F)cc3OC(C)C)n[nH]2)cc(OC)c1OC | inconclusive: 25.1 µM [activator, partial curve] | 
36 | Cn1nc(C(=O)OCC(=O)N(Cc2ccccc2)C(C)(C)C)c2ccccc2c1=O | inconclusive: 31.6 µM [activator, partial curve, poor fit] | 
37 | O=[N+]([O-])c1ccc(/C=N/Nc2nc(N3CCCC3)nc(N3CCCC3)n2)o1 | inconclusive: 1.78 µM [activator, partial curve, poor fit] | 
38 | C=C(C)COc1ccc(-c2ncncc2Oc2ccc(OC)cc2)c(O)c1 | inconclusive: 5.01 µM [activator, partial curve, poor fit] | 
39 | Cc1cc(Cl)c2c(c1)[C@]1(C(=O)N2)[C@@H]2C(=O)N(Cc3ccccc3)C(=O)[C@@H]2[C@@H]2CCCN21 | inconclusive: 50.1 µM [activator, single point] | 
40 | O=C(C[C@@H]1C[C@@H]2c3cc(NS(=O)(=O)c4ccc(F)cc4)ccc3O[C@@H]2[C@H](CO)O1)NCc1ccc(Oc2ccccc2)cc1 | inconclusive: 22.4 µM [activator, partial curve, poor fit] | 
